Measured values as given in PubChem BioAssay AID743279 (National Center for Advancing Translational Sciences (NCATS), 2014).
The whole screen tested about 360,000 compounds, of which about 17,000 (4.7%) were called active. Inconclusive means that the source gave no clear call. Such entries were picked first, then a sample of the others. Rule as the data show it: active = activity change below about -50%; inconclusive = mostly about -30% to -49%; inactive = weaker than that.

assay: qHTS for Inhibitors of Inflammasome Signaling: IL-1-beta AlphaLISA Primary Screen; conditions: THP-1 LPS/ATP IL-1B secretion, 16 h; at 57.5 µM, hits give low values
How it was run: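 THP-1 cells pretreated 1 hr with compounds (up to 57.5 uM final), then stimulated with LPS (250 ng/mL final) plus ATP (1.25 mM final); secreted IL-1B measured by AlphaLISA after 16 hr, decreased signal indicating inhibition.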
% is scaled to controls: 0 for no effect and ±100 for the full control effect.

Compound | activity change
CC1Cc2ccccc2N1C(=O)COc1cccc(-n2cnnn2)c1 (stereo not given) | inconclusive: -42.5%
COC(=O)c1cccc(Cn2c(Cl)c(/C=N/NC(=O)c3ccco3)sc2=O)c1 | inconclusive: -39.7%
CCOc1ccccc1N1CCN(C(=O)c2cccc(-c3ccc(O)cc3)c2)CC1 | inconclusive: -47.8%
CN(C)CCCN(C(=O)COc1ccccc1)c1nc2c(F)cccc2s1 | inconclusive: -31.4%
O=C(NCc1ccccc1Cl)C1CCN(c2cnccn2)CC1 | inactive: 7.46%
O=C1[C@H]2[C@@H](c3ccc(C(F)(F)F)cc3)N[C@]3(CCCN(Cc4ccc(C(F)(F)F)cc4)C3=O)[C@H]2C(=O)N1Cc1ccccc1 | inconclusive: -43.6%
Cc1cc(Br)c2c(c1)C(O)(N1CCCCC1C)C(=O)N2 (stereo not given) | inactive: -7.68%
O=S(=O)(NC1CCCCC1)c1cccc(-c2nnc(-c3ccccc3)o2)c1 | inconclusive: -44.4%
CCOC(=O)C1CCN(CC(=O)Nc2ccc(OC)c(S(=O)(=O)N3CCCCC3)c2)CC1 | inconclusive: -48.3%
Cc1ccc(N(C)S(=O)(=O)c2cccc(C(=O)Nc3nc4ccccc4[nH]3)c2)cc1 | inconclusive: -31.2%
CCN(CC)C1CCN(C(=O)c2ccc(OC3CCN(CCc4ccccc4)CC3)cc2)C1 (stereo not given) | inconclusive: -32.1%
CCC(=O)N1N=C(c2ccc(C)cc2)CC1c1ccco1 (stereo not given) | inconclusive: -30.8%
COc1ccccc1C#CC1=CC(=O)CC(C)(C)C1 | inconclusive: -32.2%
O=C(CSc1ccc2nnc(-c3ccncc3)n2n1)Nc1ccc2c(c1)OCCO2 | inconclusive: -43.3%
CCc1nnc(NC(=O)Cc2sc(C)nc2-c2ccc(C)cc2)s1 | inactive: 24.7%
COc1ccc(CNC(=O)C2(CC3CC(c4ccccc4)=NO3)CCN(C(=O)Cc3ccc(F)cc3)CC2)cc1 (stereo not given) | inconclusive: -31.8%
CCc1ccc(O)c(-c2cc(C(=O)Nc3cccnc3)[nH]n2)c1 | inconclusive: -30.4%
Cc1ccc(CN(C)C(=O)c2cccc(S(=O)(=O)N3CCN(c4ccccc4)CC3)c2)cc1 | inconclusive: -37%
CCOc1ccccc1NC(=O)C(Sc1nnc2ccccn12)c1ccccc1 (stereo not given) | inconclusive: -44.6%
CN(C)c1ccc(Nc2c3c4c(cccc4n(C)c2=O)C(=O)c2ccccc2-3)cc1 | inactive: -11.1%
CCOC(=O)Nc1ccc2c(c1)N(C(=O)CCN(C)C)c1ccccc1S2 | inconclusive: -33.1%
CCN(CC(=O)Nc1ccc(OC)cc1)C(=O)CN1C(=O)NC(C)(c2ccc3ccccc3c2)C1=O (stereo not given) | inconclusive: -35.1%

Compound | activity change
CCC(C)(C)n1nnnc1C(c1cc2cc(C)ccc2[nH]c1=O)N1CCCc2ccccc21 (stereo not given) | inconclusive: -46.4%
O=C(C1CCC1)N1CCc2cc(S(=O)(=O)Nc3ccc4c(c3)OCCO4)ccc21 | inconclusive: -35.5%
O=C(Cc1ccc(Br)cc1)N1CCN(c2ccccc2)CC1 | inconclusive: -36.8%
COC(=O)C(C)Sc1nc2c(c(-c3ccc(OC)cc3)c1C#N)-c1ccccc1C2=O (stereo not given) | inactive: 19.7%
O=C(CNS(=O)(=O)c1ccc(Cl)cc1)N1CCN(c2ccc(F)cc2)CC1 | inactive: -7.55%
Cn1nc(C(C)(C)C)cc1NC(=O)Nc1ccc(F)cc1F | inactive: -12.8%
Cc1cc(-c2ccccc2)nc2cc(C(=O)NCc3ccco3)nn12 | inconclusive: -41.5%
CN(CCCNC(=O)CSc1cc(=O)n(C)c2cc(Cl)ccc12)Cc1ccccc1 | inconclusive: -30.5%
CC(=O)c1ccc(Nc2cc(C)nc3c(C)cc(C)cc23)cc1 | active: -95.4%
Cc1[nH]nc2c1C(C(C)c1ccccc1)C(C#N)=C(N)O2 (stereo not given) | active: -86.1%
CC(C)(C)c1ccc(Cn2nnc3c(=O)[nH]c(C4CCCN(C(=O)c5cccs5)C4)nc32)cc1 (stereo not given) | inconclusive: -44%
CCOC(=O)c1c(CSCc2ccccc2)oc2ccc(O)c(CN(C)C)c12 | active: -82.2%
Cn1c2ccccc2n2c(=O)c(=O)n(CC(=O)c3ccc(Cl)cc3)nc12 | inactive: 21.5%
COc1ccc(OC)c(C2=NO[C@@H]3C(=O)N(c4cc(Cl)ccc4OC)C(=O)[C@H]23)c1 | inactive: 4.98%
O=C(CCN1C(=O)CSc2ccccc21)Nc1ccc(OC(F)(F)F)cc1 | inconclusive: -32.1%
CCCN(N=Nc1cccc([N+](=O)[O-])c1)c1cccc([N+](=O)[O-])c1 | active: -50.6%
CCOC(=O)c1csc(CCNC(=O)c2ccccc2)n1 | inactive: -19%
CC(Oc1ccc(Cl)cc1Cl)C(=O)NNC(=O)C(=O)N1CCCCC1 (stereo not given) | inactive: -6.22%
COc1ccc(CCNC(=O)CCN2C(=O)C(C)Oc3ccc(C)cc32)cc1OC (stereo not given) | inactive: 0%
COC(=O)C1=CN(c2cc(C)cc(C)c2)C=C(C(=O)OC)C1c1cccc(F)c1 | inconclusive: -30.5%
COc1ccc2c(c1)[C@H]1[C@H](CO2)[C@H](c2ccccc2)[C@]2(C)C(=O)Nc3cc(Cl)ccc3C(=O)N12 | inactive: -19.5%
CN=c1sc2c(n1C)C(=O)c1ccccc1C2=O | inconclusive: -44.3%

Compound | activity change
c1ccc(-c2cncn2-c2ccccc2)cc1 | inactive: 14.3%
COc1ccc2cc3cc(C(=O)NCCCN4CCc5ccccc5C4)sc3nc2c1 | inconclusive: -41.5%
Cc1ccc(S(=O)(=O)CCOC(=O)CNC(=O)OCc2ccccc2)cc1 | inconclusive: -32.7%
Brc1ccc(CN2CCN(Cc3c[nH]c4ccccc34)CC2)cc1 | inconclusive: -47.3%
CCOC(=O)c1c(N)sc(-c2ccccc2)c1C | inconclusive: -32%
COc1cc(-c2cc(=O)c3c(O)c(OC)c(OC)c(OC)c3o2)cc(OC)c1OC | inconclusive: -30.8%
C[C@@H](CN1C2=NC[C@H](C)N2C[C@H]1Cc1ccc(O)cc1)NC(=O)CCC1CCCCC1 | inactive: -17.2%
c1ccc2c(c1)CC/C2=N/Nc1nc2ccccc2[nH]1 | active: -108%
CC(C)(CNC(=O)c1ccc(NS(=O)(=O)c2ccc(F)cc2)cc1)N1CCOCC1 | inactive: -0.663%
CC(C)(C)OC(=O)NCCCC[C@H](NC(=O)c1nc[nH]c1C(=O)N1CCc2ccccc2C1)C(=O)OC(C)(C)C | inconclusive: -42.9%
Clc1ccc(CN2C3=NCCN3c3ccccc32)cc1 | inconclusive: -39.2%
CCN(c1ccc(OC)cc1)S(=O)(=O)c1nnc(NC(=O)c2ccco2)s1 | inconclusive: -33%
NCc1csc(Nc2nncc3ccccc23)n1 | inconclusive: -37.8%
Cc1cnc(C(=O)OCC(=O)Nc2ccc(Br)c(C)c2)cn1 | inactive: 4.58%
CCCCn1nnnc1C(c1ccccc1)N1CCN(c2ccccn2)CC1 (stereo not given) | inconclusive: -39.1%
CCCCOc1ccc(OCCSc2nc3ccccc3n2CC(=O)O)cc1 | inactive: 11.5%
CCCC(O)(CCC)C(=O)NNc1ccc(C)cc1 | inactive: 2.03%
N=c1c2c(ncn1Cc1ccco1)Oc1c(ccc3ccccc13)C2c1ccccc1 (stereo not given) | inconclusive: -44.4%
COc1ccc(/C=N/NC(=O)c2cccc(COCC(F)(F)C(F)F)c2)cc1 | inactive: -8.32%
C/C(=N\N=C(N)N)c1ccc(Cl)c(Cl)c1 | active: -103%
CCOC(=O)N/N=C(\C)c1ccc(C)c([N+](=O)[O-])c1 | inactive: -5.56%
COc1ccc(Cn2nnc(C(=O)Nc3ccc4c(c3)OCCO4)c2N)cc1Br | inactive: 0%

Compound | activity change
CCOc1ccc(CCN2C(=O)C(=O)N([C@@H](CC(C)C)CN3CCC[C@@H]3CN3C(=O)C(=O)NC[C@@H]3Cc3ccccc3)C[C@@H]2CC(C)C)cc1 | inconclusive: -31.4%
Cc1ccc(C)c(N2N=C(C(=O)OCc3nnc(-c4ccccc4Br)o3)CCC2=O)c1 | inactive: 12.1%
CCOC(=O)C1(Cc2cccc(OC)c2)CCN(Cc2cccc(OC)c2O)CC1 | inconclusive: -38.9%
CCn1c(N2CCN(C(=O)C34CC5CC(CC(C5)C3)C4)CC2)nc2ccccc21 | inconclusive: -42%
CC(=O)NCCNc1nc2cc(-c3ccc(Cl)cc3C)sc2c(=O)n1C | inactive: 28.9%
Cc1cc(C)c(S(=O)(=O)N2CCCCC2CCNC(=O)C(=O)NCc2ccco2)c(C)c1 (stereo not given) | inconclusive: -32.7%
CC12CCC=CC1=C(C=O)C1C2CCC2(C)C(O)CCC12 (stereo not given) | active: -96.6%
O=C(Cn1cnc([N+](=O)[O-])c1)Nc1ccc(Cl)cc1Cl | inconclusive: -42%
COC(=O)c1ccc(NC(=O)Nc2ccccc2F)cc1 | inconclusive: -43.1%
Cc1ccc2oc(=O)n(CCCOc3ccccc3)c2c1 | inconclusive: -32%
COc1ccc(/C=C2\CCC/C(=C\C=N\N(C)C)C2=O)cc1 | active: -59.2%
Cc1ccc(C(=O)/C=C/c2cc(Br)cc(Br)c2O)o1 | inconclusive: -32.1%
NC1=NC[C@H](c2ccccc2)N1CCc1cc(C(F)(F)F)cc(C(F)(F)F)c1 | inconclusive: -38.4%
CCCn1c(=N)n(CC(O)c2ccc(C)cc2)c2ccccc21 (stereo not given) | inconclusive: -34.9%
COc1ccc(C(=O)Nc2c(O)ccc3ccccc23)cc1 | inactive: 8.85%
CN(C)CCNS(=O)(=O)c1ccc(N2CCN(c3ccc(F)cc3)CC2)c([N+](=O)[O-])c1 | active: -73.5%
CC(C)c1ccc(Nc2nc(N3CCOCC3)nc(N3CCOCC3)n2)cc1 | inactive: -8.44%
NC1=NC2=C(CCCC2)C2(CCCCC2)S1 | active: -65.1%
Cc1ccc(NC(=O)Nc2cccc([N+](=O)[O-])c2)cc1F | active: -94.7%
